The results in this text go back to the antibiotic and cytotoxicity screens of Wong et al. (2023).

The list shows a part of the results.

In this experiment the test system is S. aureus RN4220. Put plainly: growth inhibition call (relative growth <= 0.2). The note with it: 50 µM.
As for `COc1ccc(S(=O)(=O)Nc2ccc3c(c2)CC(=O)N([C@H](C)CO)C[C@@H](C)[C@H](CN(C)S(C)(=O)=O)O3)cc1`, the growth inhibition call was “inactive”.

Turning to `CC(=O)Nc1nnc2n1CCS2`, the growth inhibition call was “inactive”.

Take `C[C@@H](O)C#Cc1cnc2c(c1)C(=O)N([C@@H](C)CO)C[C@H](C)[C@@H](CN(C)C(=O)CN1CCOCC1)O2`: the growth inhibition call was “inactive”.

Consider `COc1ccc(S(=O)(=O)N(C)C[C@@H]2OCCCC[C@@H](C)Oc3ccc(NC(=O)C4CCCCC4)cc3C(=O)N([C@H](C)CO)C[C@H]2C)cc1`, for which the growth inhibition call is “inactive”.

In the case of `C[C@@H]1CN([C@H](C)CO)C(=O)c2cc(NC(=O)Nc3ccc(F)cc3)ccc2O[C@@H](C)CCCCO[C@H]1CN(C)Cc1ccccc1`, the growth inhibition call was “inactive”.

With `CC#CCn1c(N2CCC[C@@H](N)C2)nc2c1c(=O)n(Cc1nc(C)c3ccccc3n1)c(=O)n2C`, the growth inhibition call is “inactive”.

Take `CCCCc1c(C)nc2ccc(Br)cc2c1SC(N)N`: the growth inhibition call was “inactive”.

As for `C[C@H](CO)N1C[C@H](C)[C@@H](CN(C)S(=O)(=O)c2ccccc2)Oc2ccc(NS(=O)(=O)c3ccccc3)cc2CC1=O`, the growth inhibition call was “inactive”.

Regarding `C[C@H](CO)N1C[C@H](C)[C@H](CN(C)S(=O)(=O)c2ccccc2)Oc2ccc(NC(=O)CCN3CCOCC3)cc2CC1=O`, the growth inhibition call was “inactive”.

With `C[C@@H]1CN([C@H](C)CO)C(=O)Cc2cc(NS(=O)(=O)c3cn(C)cn3)ccc2O[C@H]1CN(C)Cc1ccc2c(c1)OCO2`, the growth inhibition call was “inactive”.

Consider `C[C@H](CO)N1C[C@H](C)[C@H](CN(C)S(=O)(=O)c2ccc(F)cc2)Oc2ccc(NS(C)(=O)=O)cc2C1=O`, for which the growth inhibition call was “inactive”.

With `Cc1noc(C)c1S(=O)(=O)N(C)C[C@H]1Oc2ccc(NC(=O)NC3CCCCC3)cc2CC(=O)N([C@H](C)CO)C[C@@H]1C`, the growth inhibition call is “inactive”.

Turning to `COc1ccc(NC(=O)N(C)C[C@@H]2OCCCC[C@@H](C)Oc3ccc(NC(=O)Nc4ccccc4)cc3C(=O)N([C@H](C)CO)C[C@@H]2C)cc1`, the growth inhibition call is “inactive”.

As to `Cn1cc(N2C[C@]3(CNCCOC3)OCC2=O)cn1`, the growth inhibition call is “inactive”.

With `CC(C)NC(=O)N(C)C[C@H]1Oc2c(NS(=O)(=O)c3cn(C)cn3)cccc2C(=O)N([C@@H](C)CO)C[C@H]1C`, the growth inhibition call is “inactive”.

On to `CCOc1ccc(Nc2nc3c(=O)nc[nH]c3n2[C@H]2O[C@@H](CO)[C@@H](O)[C@@H]2O)cc1`, for which the growth inhibition call is “inactive”.

Take `COc1ccc(S(=O)(=O)Nc2ccc3c(c2)C(=O)N([C@H](C)CO)C[C@H](C)[C@@H](CN(C)Cc2ccncc2)O3)cc1`: the growth inhibition call was “inactive”.

As to `C[C@H](CO)N1C[C@H](C)[C@H](CN(C)S(=O)(=O)c2cccs2)Oc2ncc(C#Cc3ccccc3)cc2C1=O`, the growth inhibition call is “inactive”.

`COc1cccc([C@@H](NC(=O)C2CCN(Cc3ccc(Oc4ccccc4)cc3)CC2)c2ccccn2)c1`: the growth inhibition call is “inactive”.

As for `C[C@H]1CN([C@@H](C)CO)C(=O)Cc2cc(NC(=O)Cc3cn(C)c4ccccc34)ccc2O[C@H]1CN(C)S(=O)(=O)c1cn(C)cn1`, the growth inhibition call was “inactive”.

Take `C[C@H]1CN([C@@H](C)CO)C(=O)Cc2cc(NC(=O)C3CC3)ccc2O[C@H]1CN(C)C(=O)Nc1ccc(F)cc1`: the growth inhibition call is “inactive”.

On to `C[C@H](CO)N1C[C@H](C)[C@@H](CN(C)C(=O)c2cccc(F)c2)Oc2cc(C#CC3CC3)ccc2S1(=O)=O`, for which the growth inhibition call was “inactive”.

For `Cc1cc(C(=O)Nc2cccc3c2O[C@H](CN(C)S(=O)(=O)c2ccccc2)[C@@H](C)CN([C@@H](C)CO)C3=O)n(C)n1`, the growth inhibition call was “inactive”.

For the molecule `C[C@@H]1CCCCO[C@@H](CN(C)S(C)(=O)=O)[C@@H](C)CN([C@@H](C)CO)C(=O)c2cc(NS(=O)(=O)c3ccc(F)cc3)ccc2O1`, the growth inhibition call was “inactive”.

On to `C[C@H](CO)N1C[C@H](C)[C@@H](CN(C)CC2CCCCC2)OCCCC[C@H](C)Oc2ccc(NS(=O)(=O)c3cccs3)cc2C1=O`, for which the growth inhibition call is “inactive”.

For `C[C@@H]1CCCCO[C@@H](CN(C)Cc2ccncc2)[C@H](C)CN([C@@H](C)CO)C(=O)c2cc(NS(=O)(=O)c3ccc(Cl)cc3)ccc2O1`, the growth inhibition call was “inactive”.

`COCC#Cc1cnc2c(c1)C(=O)N([C@H](C)CO)C[C@H](C)[C@@H](CN(C)C(=O)Nc1cc(F)ccc1F)O2`: the growth inhibition call is “inactive”.

With `CC(C)NC(=O)Nc1ccc2c(c1)CC(=O)N([C@H](C)CO)C[C@H](C)[C@H](CN(C)S(=O)(=O)c1ccc(F)cc1)O2`, the growth inhibition call is “inactive”.

With `Cc1ccc(NC(=O)c2cc(=O)[nH]c(=O)[nH]2)cc1`, the growth inhibition call is “inactive”.

Take `CN(C)[C@@H]1C(=O)[C@@H](C(=O)NCNCCCC[C@H](N)C(=O)O)C(=O)[C@@]2(O)C(=O)[C@@H]3C(=O)c4c(O)cccc4[C@@](C)(O)[C@H]3C[C@@H]12`: the growth inhibition call is “inactive”.

As to `Cc1noc(C)c1NC(=O)Nc1ccc2c(c1)C(=O)N([C@@H](C)CO)C[C@H](C)[C@@H](CN(C)S(=O)(=O)c1ccc(F)cc1)OCCCC[C@H](C)O2`, the growth inhibition call is “inactive”.

Regarding `C[C@H]1CN([C@@H](C)CO)S(=O)(=O)c2ccc(-c3cccc(C(=O)N(C)C)c3)cc2O[C@H]1CN(C)C(=O)Cc1ccccn1`, the growth inhibition call is “inactive”.

As for `C/C(=C\CO)CC[C@H](C)CCC[C@H](C)CCCC(C)C`, the growth inhibition call was “inactive”.

Consider `Nc1nc(F)nc2c1ncn2C1OC(COP(=O)(O)O)C(O)C1O` (stereo not given), for which the growth inhibition call is “inactive”.

As to `CN(C)C(=O)C[C@H]1CC[C@H](NC(=O)C2CC2)[C@H](CO)O1`, the growth inhibition call was “inactive”.

For the molecule `CO[C@H](CN(C)S(=O)(=O)c1cccc(Cl)c1)[C@@H](C)CN([C@H](C)CO)S(=O)(=O)c1cccc(Cl)c1`, the growth inhibition call was “inactive”.

Take `CC[C@H](C)[C@@H]([C@@H](CC(=O)N1CCC[C@H]1[C@H](OC)[C@@H](C)C(=O)N[C@@H](Cc1ccccc1)c1nccs1)OC)N(C)C(=O)[C@@H](NC(=O)[C@H](C(C)C)N(C)C)C(C)C`: the growth inhibition call was “inactive”.

As for `C[C@H](CO)N1C[C@H](C)[C@@H](CN(C)S(=O)(=O)c2ccccc2)Oc2ncc(C#CCN(C)C)cc2C1=O`, the growth inhibition call is “inactive”.

For `O=C(NO)c1ccc(-c2cn(CC[C@@H]3OC(=O)[C@H](Cc4ccccc4)N4CC5=CC(=O)[C@H](C6CC6)[C@H]5[C@H]34)nn2)cc1`, the growth inhibition call is “inactive”.

Take `CC(C)C(=O)Nc1cccc(Cl)c1`: the growth inhibition call was “inactive”.
